The inconclusive results got no clear call from the source; some entries with a clear call stand among them for comparison. A potency beside an inconclusive call is a rough fit, not a confirmed value. Calls of active or inactive are those of the source. Calls come from the whole dose curve; as a rule, active = well fitted inhibition curve with a large enough effect in the repeat runs; inconclusive = weak or mixed curves; inactive = flat fitted curve, though single readings scatter.
What follows are molecules tested against Luciferin 4-monooxygenase (Photinus pyralis) (UniProt P08659) (assay: qHTS assay to identify small molecule inhibitors of firefly luciferase (AID 1224835; note: nearly all actives have a fitted effect of over 25% in size)). Conditions: purified P. pyralis luciferase, luminescence inhibition; series mostly up to 115 µM.
Chain of UniProt P08659 (P08659 whole entry, looked up): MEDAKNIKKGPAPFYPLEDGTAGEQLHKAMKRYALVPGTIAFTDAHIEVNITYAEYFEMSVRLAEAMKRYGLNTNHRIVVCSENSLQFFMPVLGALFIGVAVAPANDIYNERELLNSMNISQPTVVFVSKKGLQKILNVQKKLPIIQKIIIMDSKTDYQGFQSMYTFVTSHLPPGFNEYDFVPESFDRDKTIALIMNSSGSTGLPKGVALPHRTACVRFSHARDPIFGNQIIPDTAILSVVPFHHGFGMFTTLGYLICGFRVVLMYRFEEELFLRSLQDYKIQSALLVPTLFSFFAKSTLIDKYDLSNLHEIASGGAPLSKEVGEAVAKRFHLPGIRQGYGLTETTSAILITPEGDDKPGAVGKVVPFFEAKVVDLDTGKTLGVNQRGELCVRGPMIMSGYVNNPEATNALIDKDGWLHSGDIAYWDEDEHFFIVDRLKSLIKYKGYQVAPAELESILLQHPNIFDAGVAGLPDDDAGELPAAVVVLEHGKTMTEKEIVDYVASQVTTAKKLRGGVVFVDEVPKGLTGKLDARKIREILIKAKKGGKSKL
Procedure, shortened: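 Inhibition of purified Photinus luciferase is measured by luminescence. Substrate levels (D-luciferin, ATP) sit at their KM values. Each compound is tested in a concentration series.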
Potency is the fitted concentration of half-maximal effect; tags give direction and shape of the fitted curve.

Structure (SMILES)	Potency
CC1(C)CCC(C)(C)c2cc(NC(=O)c3ccc(C(=O)O)cc3)ccc21	inconclusive: 30.9 µM [inhibitor, partial curve, poor fit]
O=C(/C=C/c1ccc(O)c(O)c1)O[C@@H](C(=O)O)[C@@H](OC(=O)/C=C/c1ccc(O)c(O)c1)C(=O)O	inconclusive: 70.9 µM [inhibitor, partial curve, poor fit]
CC(C)C1=CC2=CC[C@@H]3[C@](C)(CCC[C@@]3(C)C(=O)O)[C@H]2CC1	inconclusive: 89.4 µM [inhibitor, single point]
CCCCCCCC/C=C/C(=O)O	inactive
CCCC(=O)OCCc1ccccc1	active: 79.6 µM
CCCCOC(=O)c1ccccc1	inconclusive: 89.4 µM [inhibitor, single point]
CC(C)(C)c1ccc(OC2CCCCC2O)cc1 (centres undefined)	active: 31.7 µM
COc1cc(/C=C/c2ccccc2)oc(=O)c1	active: 7.35 µM
NC(=O)c1ccccc1C(N)=O	inconclusive: 80 µM [inhibitor, single point]
